Data published in the supplement of paper PMC6206098.
± gives the uncertainty stated by the source. Shown are siRNA guide strands that differ only in the seed, positions 2 to 7.

What was measured:
[1] = tested on: H460; test: cell viability relative to lipid-only control; higher = less toxic; details: concentration: 10 nM; 96 h; Homo sapiens
[2] = tested on: M565; test: as above; details: concentration: 10 nM; 96 h; Mus musculus
[3] = tested on: HeyA8; test: as above; details: concentration: 10 nM; 96 h; Homo sapiens
[4] = tested on: 3LL; test: cell viability relative to siNT1 control; HeyA8 human ovarian and H460 human lung cancer; M565 mouse liver and 3LL mouse lung cancer; siNT1 is a non-toxic control siRNA; higher = less toxic; details: concentration: 10 nM; 96 h; Mus musculus;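 further: Luminescence-based viability of cells reverse transfected in 384-well plates with lipid-complexed siRNAs built on a non-toxic 19mer backbone whose passenger strand carries 2′-O-methyl groups at positions 1 and 2, triplicates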
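Wherever cell viability relative to lipid-only control is given: reverse lipid transfection in 384-well plates, in triplicate, of duplexes on a non-toxic 19mer backbone with passenger strand 2′-O-methylated at positions 1 and 2, luminescence viability read-out.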

Row | Sequence | cell viability [1] [%] | cell viability [2] [%] | cell viability [3] [%] | cell viability [4] [%]
1 | UUGCAAAACAUGUAAACCAAA | 91.3 ± 17 | 100 ± 11 | 94.2 ± 3.3 | 107 ± 5.4
2 | UCUAUCAACAUGUAAACCAAA | 63.8 ± 10 | 75.3 ± 16 | 88 ± 9.6 | 101 ± 18
3 | UUAUUGGACAUGUAAACCAAA | 66.3 ± 12 | 61.9 ± 9.7 | 72.2 ± 4 | 21.4 ± 1.4
4 | UUAACUGACAUGUAAACCAAA | 77.3 ± 7.7 | 82.9 ± 11 | 103 ± 11 | 101 ± 10
5 | UCAGUCUACAUGUAAACCAAA | 46.6 ± 6.4 | 20.7 ± 2.5 | 58.1 ± 5.8 | 61.8 ± 5.9
6 | UUACAUCACAUGUAAACCAAA | 49 ± 4.1 | 102 ± 6.4 | 74 ± 4 | 41.9 ± 15
7 | UCAAGAAACAUGUAAACCAAA | 58.7 ± 5.6 | 58 ± 4.2 | 85.9 ± 1.6 | 96.3 ± 25
8 | UUUGAUCACAUGUAAACCAAA | 72.5 ± 4.1 | 64.7 ± 9.4 | 74.8 ± 8.7 | 79.8 ± 17
9 | UCUUCUAACAUGUAAACCAAA | 64.8 ± 6.4 | 80.1 ± 20 | 95.4 ± 6.6 | 98.4 ± 19
10 | UGUGCUCACAUGUAAACCAAA | 51.7 ± 6.7 | 38.8 ± 4 | 66.9 ± 6 | 39.9 ± 5.9
11 | UUCGCCAACAUGUAAACCAAA | 86 ± 19 | 82.8 ± 12 | 101 ± 13 | 76.4 ± 29
12 | UACGGCGACAUGUAAACCAAA | 55.6 ± 5 | 64.3 ± 9.6 | 70.9 ± 10 | 82.2 ± 1.9
13 | UACUUCGACAUGUAAACCAAA | 85.2 ± 12 | 70.7 ± 2.9 | 72 ± 5.1 | 92.5 ± 8.8
14 | UUCCAGAACAUGUAAACCAAA | 61.5 ± 7 | 95.5 ± 14 | 92.7 ± 12 | 105 ± 23
15 | UGAAUCAACAUGUAAACCAAA | 91.1 ± 13 | 41.8 ± 6.5 | 58.7 ± 3.8 | 89.6 ± 24
16 | UGGAGCGACAUGUAAACCAAA | 23.7 ± 1.1 | 7.75 ± 2 | 15 ± 1.6 | 26 ± 1.7
17 | UACCUCAACAUGUAAACCAAA | 46.6 ± 5.3 | 39.3 ± 3.8 | 82.6 ± 8.3 | 68.8 ± 5.9
18 | UCUCGCAACAUGUAAACCAAA | 54.4 ± 7.5 | 70.2 ± 11 | 88.1 ± 5.4 | 95.5 ± 18
19 | UCGCGUGACAUGUAAACCAAA | 71.4 ± 8 | 72 ± 7.6 | 86.5 ± 0.86 | 92.4 ± 19
20 | UGGAUCCACAUGUAAACCAAA | 50.8 ± 4.4 | 32.2 ± 7.3 | 11.7 ± 1.5 | 15.2 ± 0.56
21 | UCGGGUAACAUGUAAACCAAA | 73.6 ± 15 | 66.4 ± 8.1 | 69.2 ± 13 | 87.9 ± 7.2
22 | UUGUGGAACAUGUAAACCAAA | 62.9 ± 2.9 | 40.3 ± 1.1 | 39.6 ± 4.6 | 88.5 ± 8.4

Row | Sequence | cell viability [1] [%] | cell viability [2] [%] | cell viability [3] [%] | cell viability [4] [%]
23 | UUUGUCAACAUGUAAACCAAA | 70.1 ± 4.8 | 97.6 ± 28 | 102 ± 3 | 97.9 ± 13
24 | UACUUGGACAUGUAAACCAAA | 52.2 ± 2 | 37.9 ± 5.8 | 8.53 ± 1 | 21.7 ± 5.7
25 | UCAACAGACAUGUAAACCAAA | 56.1 ± 4.2 | 52.9 ± 10 | 83.5 ± 3.1 | 90.4 ± 12
26 | UCUUUGGACAUGUAAACCAAA | 54.1 ± 5.1 | 48.1 ± 8.3 | 68.8 ± 6.4 | 94.8 ± 16
27 | UAUCGCCACAUGUAAACCAAA | 80.2 ± 2.3 | 58.2 ± 5.9 | 103 ± 11 | 17.5 ± 3.4
28 | UGAACAAACAUGUAAACCAAA | 102 ± 12 | 71.6 ± 20 | 89 ± 9.4 | 97.1 ± 20
29 | UUCGGCCACAUGUAAACCAAA | 36.5 ± 3.2 | 45.1 ± 2.6 | 46.1 ± 3 | 19.6 ± 7.2
30 | UACGUAAACAUGUAAACCAAA | 67.1 ± 7.6 | 80.6 ± 7.8 | 96.3 ± 7 | 90.3 ± 9.6
31 | UUCUACAACAUGUAAACCAAA | 79.4 ± 12 | 72.3 ± 9.7 | 104 ± 14 | 80.9 ± 5.6
32 | UACGAGAACAUGUAAACCAAA | 70.3 ± 13 | 78.2 ± 14 | 86.7 ± 8.4 | 84.9 ± 12
33 | UGACCCAACAUGUAAACCAAA | 47.6 ± 3.2 | 27.4 ± 9.8 | 76.7 ± 3.2 | 33.7 ± 2.5
34 | UUAGAAAACAUGUAAACCAAA | 88.1 ± 30 | 86.3 ± 8.4 | 101 ± 7.1 | 100 ± 4.3
35 | UAGCCUGACAUGUAAACCAAA | 64.3 ± 12 | 65.2 ± 2.1 | 24.2 ± 2.1 | 58.8 ± 11
36 | UACCAAGACAUGUAAACCAAA | 43.9 ± 5 | 48.1 ± 8.5 | 81.3 ± 8.6 | 85.2 ± 2.7
37 | UGAUAUUACAUGUAAACCAAA | 56.4 ± 7.8 | 54.6 ± 4.5 | 47 ± 5.3 | 65.1 ± 21
38 | UAGAGAUACAUGUAAACCAAA | 75.1 ± 5.4 | 14.1 ± 3.8 | 75.4 ± 5.2 | 31.9 ± 0.78
39 | UAUGCGUACAUGUAAACCAAA | 83.7 ± 7.6 | 116 ± 6 | 98.4 ± 5.7 | 81.3 ± 14
40 | UGUAUUGACAUGUAAACCAAA | 76.7 ± 7.1 | 49 ± 13 | 78.7 ± 14 | 90.1 ± 3.5
41 | UGCGUUGACAUGUAAACCAAA | 83 ± 7.7 | 88.07 ± 0.81 | 63.7 ± 15 | 90.3 ± 16
42 | UGCCCAAACAUGUAAACCAAA | 101 ± 3.1 | 57 ± 10 | 57.2 ± 5.6 | 72 ± 14
43 | UCACCCCACAUGUAAACCAAA | 20.6 ± 1.6 | 44.9 ± 6.8 | 26.9 ± 1.2 | 15.3 ± 3.3
44 | UAGUGAAACAUGUAAACCAAA | 72.6 ± 8.1 | 49.5 ± 4.4 | 91.9 ± 6.6 | 92.4 ± 7.6
